What was measured:
[1] = system: Pseudomonas aeruginosa ATCC9027; test: Paper disc test with water or propylene glycol, Example 10; parameters: key: NZ: no accompanying zone of inhibition; CZ: clear zone of inhibition surrounding the sample and zone measured in millimeters (mm)
Excerpt: (§1) PCA or 246 THBA were combined with propylene glycol (PPG). The PPG was placed on a paper disc and then either PCA or 246 THBA was applied. The paper disc was then placed on colonies of various bacterial in a Petri dish. At a certain uniform time they were inspected and classified in the following categories: • NI: no inhibition of bacteria growth under the sample • I: inhibition of bacterial growth under the sample • NZ: no accompanying zone of inhibition • CZ: clear zone of inhibition surrounding the sample and zone measured in millimeters (mm).

[2] = system: Staphylococcus aureus ATCC33591 (MRSA); test: as above; parameters: key: NZ: no accompanying zone of inhibition; CZ: clear zone of inhibition surrounding the sample and zone measured in millimeters (mm)
Excerpt: as §1

Measured: zone of inhibition, class

O=Cc1c(O)cc(O)cc1O [2, 4, 6 Trihydroxybenzaldehyde, 2, 4, 6 trihydroxybenzaldehyde]
CZ: [1]; PPG | [1]; Water | [2]; PPG | [2]; Water

O=C(O)c1ccc(O)c(O)c1 [PCA, Protocatechuic acid]
CZ: [1]; PPG | [1]; Water
